Source: the supplement of paper PMC11417369
The list shows a part of the results.

tested on: PF3D7_0420300 AP2 domain 1 (GST-tagged); assay: gcPBM binding intensity (ln(normalized median fluorescence intensity)); higher = stronger DNA binding
In short: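 DNA-binding domains from P. falciparum, fused to GST and produced in E. coli, were put on an Agilent 4 × 180k double-stranded probe array for 1 h in 1× PBS holding 1% milk, 0.2 mg/ml BSA, 0.5% salmon testes DNA and 0.03% Triton X-100. Probes were primer-extended, 36 bp long and drawn from intergenic genomic regions, with negative controls included. After Alexa488 anti-GST antibody detection and a 488 nm scan, binding intensity was set as the highest Masliner-normalised natural-log median intensity across replicate spots of either probe orientation.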

Row | Sequence | gcPBM binding intensity (ln)
1 | TAAATAAATTATTTTCGTACTTATTTATTTTAATTA [XGTACX_site283] | 9.03
2 | AAAAAAAAAAAACACACACACAAATACAAATGGTAA [CACACA_site1720] | 10.1
3 | AAGTTATTGATATATACACACAAATATAAATAATAT [CACACA_site6695] | 9.6
4 | AATACATATCAAAGCTGTACAAAGTAAATTTTACTT [XGTACX_site3525] | 9.37
5 | TTCAATAGGTATAATTGTACTTAATAATATATTGTT [XGTACX_site8363] | 9.27
6 | TAATGGTTATCACTAACATGCAGTAATATTATATAG [TGCATGCA_site176] | 9.14
7 | TTTTTTCTTTTTTTTTGTACATATAATATTTATGTT [XGTACX_site302] | 9.4
8 | ATATATATATGTATATGTACATATATATGGTAACTC [XGTACX_site681] | 9.38
9 | ATATAATATTTATATGCACACTTTTCTATATATAAG [CACACA_site6100] | 9.42
10 | TAAAATATTATTTATTTACACACCAATCTTCTTTTC [CACACA_site9320] | 9.38
11 | TCGTATTTAAAATGTAGTACATAATTTGAAAAATAA [XGTACX_site5832] | 8.88
12 | AAGGATCACAGACAAACACACATATATATATATATA [CACACA_site4469] | 9.33
13 | TTTTGACCATATCTGTTGCACTTTTGTGCTATTCGA | 9.14
14 | CATTATGTCGTAAATACACACATACATATACATACA [CACACA_site8383] | 9.57
15 | AAATAATTTGTTGACACACACACACCCATACAGATA [CACACA_site5291] | 10.1
16 | TAAATTTTTTCCTCCTGTACTTATTATATTTTTTTG [XGTACX_site1572] | 9.47
17 | ATTAATTCGTTTTGTACACACATAATGAGTAATTTA [CACACA_site7118] | 9.44
18 | ATAAAAATTGATTATACACACGCGCCCAGACAACAA [CACACA_site5870] | 9.85
19 | ATATAGATGCATAATACACACATCAGATAATTAACC [CACACA_site6871] | 9.78
20 | ACAAGGTTTACGGGTAGTACAAATTTTTGAACATCT [XGTACX_site4739] | 9.07
21 | TTTTTTTTTTTTTTTTGTACTCATATCTACTATCAT [XGTACX_site274] | 8.84
22 | AGCCAAACCTTAAATTTAGCAATAAGTTTACAGGTC [CACACA_negctrl_site360] | 9.04
23 | ATTAAAAGTTTATACAAATAAAAAACAAAACAAAAA [CACACA_negctrl_site1030] | 9.41

Row | Sequence | gcPBM binding intensity (ln)
24 | AATGTTTTATTTTGAAGTACATTTAAGAATTTTTTA [XGTACX_site7814] | 8.99
25 | TATATATGCATATACATACACACATAACACATACGT [CACACA_site3833] | 9.66
26 | ATATAATAATAAGGCACACAAATTAAAATATAAAAA [CACACA_site3710] | 9.58
27 | TTATGCCTTTAATATACACACTAATATTTTTTTGGC [CACACA_site5171] | 9.27
28 | AATTTTTTTTTTAGACGTACAAGAAAAAACAAAAAA [XGTACX_site4990] | 9.18
29 | TATATGAAGTACACAATACACACTAATTATATATAA [CACACA_site2608] | 9.6
30 | AACTATAAAAATTTTACACACTGTTTTTAAATAATG [CACACA_site5928] | 9.4
31 | TGTGTATTTATAAATACACACCAAATGTTAATATAT [CACACA_site6904] | 9.36
32 | GTAAAATGATATAAATGTACATAATATATATATGTC [XGTACX_site4049] | 9.43
33 | TGTCATATTATAAATTGTACAAATAGTATAATTATT [XGTACX_site581] | 9.15
34 | ATTTTATCTTTAAACTGTACGTATTAATATGTAGAA [XGTACX_site3077] | 9.14
35 | AGTATACATATATATACACACATATATATATATATA [CACACA_site300] | 9.42
36 | ATAAAAATATTATAAGCACACATATATATATATATA [CACACA_site8781] | 9.16
37 | TTAACATATTTGTTAGTGCATTTTGATATTACACAT [GTGCAC_site9978] | 9.35
38 | AAAAAAATTAAATGTACACACACCTTAAACAATGTC [CACACA_site1855] | 9.72
39 | CTAATATCTGTATGCACACACAATAAATACATATTT [CACACA_site5797] | 9.6
40 | ATAAATAAATAAATAAATAAATAAATAAATATATAT [CACACA_negctrl_site1728] | 9.3
41 | ATTTATTTTATATGTTGTACAAACATTTTAAAACAT [XGTACX_site6919] | 9.06
42 | TCTTTTTCTTGACGAGTGCAAAAATTGTGTTTGAAA | 8.95
43 | AATGCCTTGTTGAGGTGTACTGAATGTTATTTTAAT [XGTACX_site3255] | 9.19
44 | TTTTTTTAAAGAATTATCATAAAATGATTGCATCAT [XGTACX_negctrl_site141] | 8.69
45 | AAGGAAATATAATATACACACATAAGTGTACTTATA [CACACA_site4030] | 9.52
46 | GAAAAATTAAAAATAACACACACATATATATATTTA [CACACA_site8896] | 9.78

Row | Sequence | gcPBM binding intensity (ln)
47 | ATTATATATCCCTATTCACACATGTATTATATAAAT [CACACA_site5486] | 9.57
48 | TAATAAAGTGAATAATGTACATTTTATTTATTATAT [XGTACX_site6614] | 9.07
49 | TCAGTAATACTTGAATGTACTTATATTGTTTGTTTG [XGTACX_site6449] | 9.47
50 | CCTATATTAAAACAAGCACACAATCGCATAATATCC [CACACA_site9052] | 9.72
51 | TATATAATAAAAAAAAGTACTTGGACAATATTATTT [XGTACX_site2802] | 9.32
52 | ATCAAAATATTTATATGTACATATTAAAAATATAGA [XGTACX_site725] | 9.06
53 | TTAATTTACATGAACTGTACATAACATTTTTTTAAA [XGTACX_site4672] | 8.96
54 | ATCAACATCTAACATTGTACATGTGATGTGTAAAAG [XGTACX_site547] | 9.14
55 | ATATTTGCCCAAGATAGTACATATATATATATATAT [XGTACX_site7756] | 9.44
56 | ATATTGGAGCACAACACACACAAGTATATATATGGA [CACACA_site1546] | 9.79
57 | TATATATATATATATTGTACATATATTATTATATAT [XGTACX_site7447] | 9.16
58 | AAATAGCCAAAAATCATGCACACCTAAAAAAAAAAA [CACACA_site2572] | 9.42
59 | AATTCTCTTAATAAATAAACACAAATAAATAATAAA [GTGCAC_negctrl_site499] | 9.16
60 | CATACATACAAACACACACACACACCGATATATATA [CACACA_site8952] | 10.3
61 | CACATACAGACATACACACACATATATATTAATATA [CACACA_site546] | 9.95
62 | TTATTTATAATGTTGTGTACATATATGAATATACCA [XGTACX_site3111] | 9.07
63 | AAGAAAAAATAAAGCACACAAATATTTTAAAAACAC [CACACA_site3325] | 9.94
64 | GATATATATACATGTGTGCACCATGCAACTTGTTTT | 9.59
65 | TTTTTTCAATTGGAAATTATTTTACAATGAAGGGTA [XGTACX_negctrl_site469] | 8.84
66 | TATTTTACGTATTGTTGTACTTGAAACAAATATACA [XGTACX_site8778] | 8.99
67 | TATAAACATAAATATACACACAAACATATATGTATT [CACACA_site8324] | 9.85
68 | CGTTTCCCCAATGGTTGTACAATATATATATATATA [XGTACX_site8641] | 9.47
69 | AGACATATAATATATACACACATATATATATATATA [CACACA_site1066] | 9.36

Row | Sequence | gcPBM binding intensity (ln)
70 | TTGTGTTTTATTATTTTATTATTACTATTATAATGT [GTGCAC_negctrl_site484] | 9.62
71 | ATAAAACATAAATACATACACACATAATATATATTA [CACACA_site110] | 9.88
72 | TAAAAATGGGTATGTACACACTTTATTTTTAATACA [CACACA_site5404] | 9.24
73 | TGTAATGTTTACAACACACAAATTAGAAATACAAAA [CACACA_site6924] | 9.34
74 | AAGGAAGATATATACACACATACAAATATATATATA [CACACA_site2181] | 9.8
75 | ACATATTTAAAAACATGTACAAATATATTTATAATT [XGTACX_site661] | 9.17
76 | ATATTTTATTTATATACACACACATATATATATTAT [CACACA_site8177] | 9.78
77 | TTCTTTATATACAAACCAAAATATTATGTATAATAA [CACACA_negctrl_site15] | 8.93
78 | CTTTATATAAAATAAAGTACATAAATTATGATATAT [XGTACX_site3699] | 9.09
79 | TAATTTTTTTTTATGATACACACTTGGATAATTAAA [CACACA_site562] | 9.07
80 | TTATTATATATTTTATTTATTAATAGTATATATTAT [TGCATGCA_negctrl_site155] | 9.18
81 | TTATTCTAGTAGTGTGTGCGCATGGACAATGCAATA | 9.52
82 | ATACATATAATATATGCATGTACCAATCAAATATAT [TGCATGCA_site192] | 9.17
83 | TATATATCGTTATATACACACATGTATATAAAAAAT [CACACA_site7501] | 9.58
84 | AATATTTGCCTATGTTGTACTGACATTTTTTTAAGT [XGTACX_site6836] | 9.43
85 | TATATACACATGCGCACACACAAGTGGGAAATTTGG [CACACA_site6930] | 9.71
86 | ATATATAATATATGATGTACTTAATAATTTTTTTTT [XGTACX_site5715] | 9.03
87 | TTAAGGATCCACGATACACACATATCATTCAACAAA [CACACA_site1924] | 9.43
88 | TAATAATCCACAAGCACACACACACCCATATATATA [CACACA_site1267] | 10
89 | TTAACCTTTATATAATACGTATCATCCTCATATATA [CACACA_negctrl_site86] | 9.34
